Measurements as given in PubChem BioAssay AID1259407 (Chemical Carcinogenesis Research Information System (CCRIS), 2018).
For part of its entries the source gives two or more results. Only these are listed. The rule behind the calls is not given here. An entry can have further records. The values listed for one entry are repeats (runs, samples, wells, individuals or studies). Marks in square brackets tell the records apart. Letters count within one entry.

Tested on: CCRIS mutagenicity, Ames/micronucleus/aberration tests
Test: CCRIS mutagenicity studies
Conditions: Test System: AMES SALMONELLA TYPHIMURIUM
[1] = Strain/Indicator: TA100, Metabolic Activation: NONE, Method: PREINCUBATION
[2] = Strain/Indicator: TA1538, Metabolic Activation: RAT, LIVER, S-9, AROCLOR 1254, Method: STANDARD PLATE
[3] = Strain/Indicator: TA100, Metabolic Activation: NONE, Method: STANDARD PLATE
[4] = Strain/Indicator: TA100, Metabolic Activation: RAT, LIVER, S-9, Method: STANDARD PLATE
[5] = Strain/Indicator: TA98, Metabolic Activation: NONE, Method: STANDARD PLATE

In the case of `C=C(C=O)CCC`, the mutagenic call [1] is reported as “inactive; negative [study A] and active; positive [study B]”.
With `OC(O)C(Cl)(Cl)Cl` the mutagenic call [1] was “active; positive [study A] and inactive; negative [study B]”.
In the case of `Nc1cc2c3ccccc3ccc2c2ccccc12`, the mutagenic call (Strain/Indicator: TA1537, Metabolic Activation: RAT, LIVER, S-9, AROCLOR 1254, Method: STANDARD PLATE) is reported as “inactive; negative [study A] and active; positive [study B]” and the mutagenic call [2] is reported as “inactive; negative [study A] and active; positive [study B]”.
`CCOS(C)(=O)=O` was tested, and the mutagenic call (Strain/Indicator: TA98, Metabolic Activation: RAT, LIVER, S-9, AROCLOR 1254, Method: STANDARD PLATE) was “active; positive [study A] and inactive; negative [study B]” and the mutagenic call (Strain/Indicator: TA1535, Metabolic Activation: NONE, Method: PREINCUBATION) was “active; positive [study A] and active; positive [study B] and inactive; negative [study C]”.
In the case of `c1ccc2c(c1)ccc1c2ccc2cccnc21`, the mutagenic call [3] is reported as “inactive; negative [study A, 0.1 to 50 µg/plate] and active; positive [study B, 0 to 50 µg/plate]”.
For `c1ccc2c(c1)cc1ccc3cc4ccccc4c4ccc2c1c34`, the mutagenic call [2] was “inactive; negative [study A] and active; positive [study B]”.
`CN(C)N=O` was tested, and the mutagenic call [4] was “inactive; negative [study A] and active; positive [study B]”.
`c1ccc2c(c1)ccc1c3cccnc3ccc21` was tested, and the mutagenic call [5] was “inactive; negative [study A, 0.1 to 20 µg/plate] and active; positive [study B, 0 to 10 µg/plate]” and the mutagenic call [3] was “inactive; negative [study A, 0.1 to 20 µg/plate] and active; positive [study B, 0 to 10 µg/plate]”.
For `c1ccc2c(c1)ccc1cc3cnccc3cc12`, the mutagenic call [5] was “inactive; negative [study A, 0.1 to 50 µg/plate] and active; positive [study B, 0 to 50 µg/plate]” and the mutagenic call [3] was “inactive; negative [study A, 0.1 to 50 µg/plate] and active; positive [study B, 0 to 50 µg/plate]”.
With `O=NN1CCCCC1` the mutagenic call [4] was “inactive; negative [study A] and active; positive [study B]”.
